Consider 96 molecules from PubChem BioAssay AID485344 (National Center for Advancing Translational Sciences (NCATS), 2010).

Out of some 340,000 compounds screened, about 6,900 (2%) were called active. Cut-off read from the data, not from the text of the source: active = inhibition above about 30%; inactive = below that, where a call was filed. This is a selection; strong and weak results do not stand in their true shares. Entries without a call were filed so in the source.

The assay addresses D(2) dopamine receptor (Homo sapiens) (UniProt P14416). As to the kind of experiment: HTS Assay for Allosteric Antagonists of the Human D2 Dopamine Receptor: Primary Screen for Antagonists. Note: 0% is about no effect. Conditions: HEK293 TREx D2 cells, calcium flux, dopamine EC80; at 10 µM; stronger effect = higher value. The procedure, abridged: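 Tetracycline-induced HEK293 T-REx cells expressing D2 force-coupled to calcium signalling were dye-loaded, exposed to compound for 180 s, then challenged with an EC80 of dopamine; calcium flux was followed kinetically for a further 180 s.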
Chain of UniProt P14416 (P14416 whole entry, looked up): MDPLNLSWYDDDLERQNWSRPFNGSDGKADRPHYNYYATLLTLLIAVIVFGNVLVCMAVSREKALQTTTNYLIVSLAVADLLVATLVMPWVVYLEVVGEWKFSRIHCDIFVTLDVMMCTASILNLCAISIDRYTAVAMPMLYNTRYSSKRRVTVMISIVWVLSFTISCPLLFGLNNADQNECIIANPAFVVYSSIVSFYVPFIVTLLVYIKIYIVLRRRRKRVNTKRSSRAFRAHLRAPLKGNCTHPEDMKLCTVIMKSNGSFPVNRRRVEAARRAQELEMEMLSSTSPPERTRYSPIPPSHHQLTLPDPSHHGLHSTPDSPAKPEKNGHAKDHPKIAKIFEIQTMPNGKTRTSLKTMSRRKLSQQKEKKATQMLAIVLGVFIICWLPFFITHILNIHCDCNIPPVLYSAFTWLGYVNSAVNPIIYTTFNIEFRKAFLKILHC
In general terms: A change in cytosolic calcium serves as a functional read-out for many receptors and channels.
On to `Cc1ccc(C)c(NC(=O)CN2C(=O)c3cccc4cccc2c34)c1`, for which the inhibition (in general, the drop in the measured response relative to a control, in per cent) was determined as 0.111%.
To `CCOC(=O)c1ccccc1NC(=O)NC(C)c1c(-n2cccc2)sc(C)c1C` (stereo unspecified) belongs 5.26%; to `Cc1cccc(Cn2ccn(Cc3ccc(Cl)cc3)c(=O)c2=O)c1`, -18.1%.
For the molecule `O=c1c2ccccc2n2c(-c3ccccc3O)nnc2n1Cc1ccc(F)cc1`, the inhibition was -2.79%.
To `CCOC(=O)C1=NN(c2ccccc2)C(=O)/C1=C\c1ccc(N(C)C)cc1` belongs active: 31.7%; to `O=C(CSc1nc(-c2cccc(Cl)c2)nc2cc(=O)[nH]n12)Nc1ccccc1`, -3.73%; to `CCN(CC)C(=O)c1sc(NC(=O)c2nc3ncccn3n2)c(C(=O)OC)c1C`, 0.386%.
To `CC(C(=O)NCc1ccccc1Cl)n1ccc2cc(S(=O)(=O)N3CCCCC3)ccc21` (stereo unspecified) belongs 0.704%.
Then `CC(=O)c1ccc(N2CCN(c3ccc(NC(=O)c4cccs4)cc3C(=O)O)CC2)cc1`, with 16.6%.
As to `CC(NC(=O)Cn1cc2c(n1)CCCCC2)c1ccccc1` (stereo unspecified), the inhibition was active: 35.3%.
For `Cc1ccc(-n2ncc(C(=O)NCCCN3CCCCC3)c2C2CCN(C(=O)OC(C)(C)C)CC2)c(C)c1`, the inhibition is -7.46%.
To `Cn1c(=O)[nH]c(=O)c2c1nc(N1CCCCCC1)n2CCN1CCCCCC1` belongs active: 39.9%; to `Cc1ccc(NC(=O)CSc2nnc3nc(C)cc(C)n23)cc1`, 3.88%; to `CCc1cccc(C)c1NC(=O)CCCn1c(=O)c2cccn2c2cccnc21`, -0.717%.
To `Cc1ccccc1-c1noc(C23CC4CC(CC(C4)C2)C3)n1` belongs active: 75.2%; to `Oc1ccc(Nc2nc3ccccc3n3cnnc23)cc1`, 4.92%; to `CCOCCCNC(=O)CN1C(=O)COc2ccc(S(=O)(=O)N3CCCCCC3)cc21`, 2.77%.
Then `CCOC(=O)c1cnc2c(C)cc(C)cc2c1Nc1cccc(C(=O)O)c1`, with 1.62%; and `Cc1ccc(C2c3c(-c4cc(C)ccc4O)n[nH]c3C(=O)N2Cc2ccco2)cc1` (stereo unspecified), with 3.88%.
On to `COc1ccccc1N1CCN(CC(O)COc2ccc3c(C)cc(=O)oc3c2)CC1` (stereo unspecified), for which the inhibition was active: 72.1%.
Then `O=C(Nc1cccc2cccnc12)c1ccccc1[N+](=O)[O-]`, with 14.7%; and `Cc1ccc(S(=O)(=O)c2cnc(SCC(=O)Nc3cccc(Cl)c3)nc2N)cc1C`, with 4.76%.
To `CCN(CC)C(=O)Cn1cc(SCC(=O)Nc2cccc(F)c2)c2ccccc21` belongs -2.64%; to `COc1ccc(C(CC(=O)O)NC(=O)c2cc3ccccc3oc2=O)cc1OC` (stereo unspecified), 6.36%; to `Cc1ncc(CO)c2c1Oc1nc(-c3ccc(Cl)cc3)nc(SCC(=O)N3CCCCC3)c1C2`, 19.5%.
To `OCCCN1CCN(CCOc2ccccc2-c2ccccc2)CC1` belongs active: 66.6%; to `CCc1ccc(C2(O)CC(C(F)(F)F)=NN2C(=O)Cc2ccc([N+](=O)[O-])cc2)cc1` (stereo unspecified), active: 32.8%; to `COc1cccc(CNC(=O)c2cc(-c3ccc(Cl)s3)nc3ccccc23)c1`, 19.5%.
Take `COc1ccc(NC(=O)c2nc(S(C)(=O)=O)ncc2N(Cc2ccc(C)cc2)Cc2ccco2)cc1Cl`: the inhibition is 7.05%.
On to `COc1ccc(Cl)cc1NC(=O)c1cc(-c2ccc3c(c2)OCO3)on1`, for which the inhibition turned out to be 9.65%.
Turning to `CCCCc1cc(=O)oc2cc(C)c3c(C(C)(C)C)coc3c12`, the inhibition is -12.9%.
As for `COc1ccc(C)cc1NC(=O)N1CCN(S(=O)(=O)c2ccc3c(ccn3C)c2)CC1`, the inhibition is -6.19%.
Then `O=C(NCc1ccc(Cl)cc1)C1CCN(c2nn3cc(-c4ccc(F)cc4)nc3s2)CC1`, with 3.05%; and `CCn1c2c(c(=O)n3ncc(C(=O)Nc4cc(Cl)ccc4OC)c13)CN(Cc1ccc(OC)cc1)CC2`, with -1.31%.
Then `Cc1c(C(=O)OCCOc2ccccc2)[nH]c2c1C(=O)CC(c1ccc(C(C)(C)C)cc1)C2` (stereo unspecified), with 0.889%; and `CCCNC(=O)CCC(=O)N1Cc2cccc(OC)c2Oc2ncccc21`, with 6.32%; and `CCOC(=O)C1CCN(C(=O)CCc2nc3ccccc3[nH]2)CC1`, with active: 60.6%.
Then `CC1CN(C(=O)NCc2ccccc2)c2cc(Cl)ccc2O1` (stereo unspecified), with 8.28%.
As to `Cc1cccc(NC(=O)CSc2nc3ccc(NC(=O)COc4ccccc4C)cc3s2)c1`, the inhibition amounted to 2.53%.
Take `Cc1ccc(NC(=O)CSc2nc(-c3ccco3)cc(C(F)(F)F)n2)c(C)c1`: the inhibition was -12.2%.
For the molecule `COc1cccc2cc(C(=O)Nc3ccc(CC(=O)O)cc3)c(=O)oc12`, the inhibition stood at 20.6%.
Then `COc1ccc(CN2CCC(C(=O)c3ccc(Cl)cc3)CC2)cc1`, with active: 35.3%; and `CCCCN1CC(c2nc3ccccc3n2CCCCOc2cc(C)cc(C)c2)CC1=O` (stereo unspecified), with -3.37%; and `Cc1ccn2c(NC3CCCCC3)c(C)nc2c1`, with active: 34.6%.
Then `CCOc1ccc(S(=O)(=O)N2Cc3ccccc3CC2C(=O)Nc2ccc(NC(C)=O)cc2)cc1` (stereo unspecified), with -9.16%; and `COc1ccc(-c2cc(C(=O)Nc3sc4c(c3C(N)=O)CCCC4)no2)cc1`, with 14.2%.
To `COCCCNC(=O)CN1C(=O)c2cccnc2Sc2ccccc21` belongs 2.26%.
For the molecule `CC(=O)c1cccc(NC(=O)CN2C(=O)CCc3cc(S(=O)(=O)N4CCCCC4)ccc32)c1`, the inhibition is -12.5%.
Regarding `COc1ccccc1N1CCN(C(=O)c2cc(-c3ccc(C)c(F)c3)on2)CC1`, the inhibition amounted to 13.6%.
To `COc1cc(CNc2ccc3[nH]c(=O)[nH]c3c2)ccc1OCc1ccc(F)cc1Cl` belongs 5.18%.
To `COc1ccc(CN2CCc3c(c(=O)n4ncc(C(=O)N5CCN(c6ccccc6F)CC5)c4n3C)C2)cc1` belongs 13.4%.
Then `O=C(Cc1csc(Nc2nc(=S)[nH]c3ccccc23)n1)NCCCN1CCN(c2cccc(Cl)c2)CC1`, with active: 69.4%; and `COC(=O)c1ccc2c(=O)n3nc(Nc4ccc(F)cc4F)sc3nc2c1`, with -3.09%.
In the case of `COc1ccc(CNC(=O)c2ccc3c(O)c(S(=O)(=O)c4ccccc4)c(=O)[nH]c3c2)cc1`, the inhibition came out at 3.98%.
For the molecule `CS(=O)(=O)N(Cc1ccccc1)c1ccc(C(=O)Nc2cccc(Cl)c2)cc1`, the inhibition worked out at 4.36%.
As for `Cc1cccc(N2CCN(C(=O)c3nn(C)c4c3CS(=O)(=O)c3ccccc3-4)CC2)c1C`, the inhibition is -9.26%.
To `COc1ccc(Cn2ccc3nc(C)c(C(=O)N4CCN(c5cccc(OC)c5)CC4)cc3c2=O)cc1` belongs -14.6%; to `CCCCC1CCC(C(=O)N2CC(=O)Nc3ccc(C)cc3C2c2ccc(F)cc2)CC1` (stereo unspecified), 1.6%; to `COc1ccc(NC(=O)c2c(NC(=O)C(F)(F)F)sc3c2CCCCC3)cc1`, -23.3%.
Then `CCN(C(=O)CCc1nc(-c2ccc(C)cc2)no1)c1cccc(C(F)(F)F)c1`, with 4.32%; and `COc1ccccc1N1CCN(CCCCOc2ccc(C)cc2C)CC1`, with active: 81.7%; and `Cc1ccc(CN2CCSc3ccc(C(=O)NC4CCN(Cc5ccccc5)CC4)cc32)cc1`, with active: 73.9%.
As to `CCOC(=O)c1c(C)[nH]c(CCC(=O)Nc2ccccc2C(F)(F)F)c1C`, the inhibition is -1.81%.
Then `O=C(CCS(=O)(=O)c1cc2c(cc1Cl)NC(=O)CO2)NCCc1ccccc1`, with 8.5%.
`COc1ccc(C(=O)Nc2ccc(S(=O)(=O)Nc3cc(C)nc(C)n3)cc2)cc1`: the inhibition stood at 0.609%.
Then `CCCS(=O)(=O)N1CC(=O)N(c2cccc(F)c2)C(C)(C(=O)NC2CCCCCC2)C1` (stereo unspecified), with 1.08%; and `O=C(CSc1n[nH]c(-c2ccccc2Cl)n1)NCCc1ccccc1`, with -7.43%.
`COc1ccc(N2CCN(C(=O)c3cccn3-c3nnc(N4CCCC4)s3)CC2)cc1`: the inhibition worked out at 5.75%.
To `CCc1nn(CCCC(=O)NCc2ccc(OC(C)C)cc2)c(=O)c2cc3occc3n12` belongs 4.98%; to `CCOc1cc(CNS(=O)(=O)c2ccc3c(c2)C(C)(C)C(=O)N3)cc(OCC)c1OCC`, -12.3%.
Consider `CC(NC(=O)Cn1ccc2cc(S(=O)(=O)N3CCCCCC3)ccc21)c1ccccc1` (stereo unspecified), for which the inhibition was -2.13%.
Then `CCOC(=O)C1CCCN(c2nc3c(S(=O)(=O)c4ccc(CC)cc4)nnn3c3ccc(Cl)cc23)C1` (stereo unspecified), with 18%; and `COc1ccc(C)cc1NC(=O)Nc1nnc(N2CCCCC2)s1`, with 13%.
To `COc1ccc(Nc2ncnc3sc4c(c23)CCCC4)cc1` belongs -1.62%; to `O=C(NCc1ccccc1Cl)c1ccc(CS(=O)(=O)c2ccc(Br)cc2)o1`, -0.282%; to `CCOC(=O)C1CCN(C(=O)Cn2nc(CC)n3c(cc4sccc43)c2=O)CC1`, 9.45%.
Regarding `Cc1cc(C)c(NC(=O)Cn2c(=O)n(CCC(=O)N3CCc4ccccc4C3)c(=O)c3ccccc32)c(C)c1`, the inhibition is 19%.
Then `Clc1ccc(-n2ncc3c(NC4CCCC4)ncnc32)cc1`, with 6.2%; and `Cc1ccc(Cn2c3ccccc3c3cnn(CC(=O)Nc4cc(Cl)ccc4C)c(=O)c32)cc1`, with 4.64%; and `Cc1c(CNC2CCCCC2)c(C(=O)O)c(C)n1Cc1ccc(Cl)cc1`, with -4.93%.
Then `COc1ccccc1N1CCN(Cc2cn[nH]c2-c2ccc(F)cc2)CC1`, with active: 82.2%; and `Cc1nn2c(=O)cc(COC(=O)c3cccc(NC(=O)COc4ccccc4C)c3)nc2s1`, with -3.64%; and `Cc1ccc(N2C(=O)CCSC23C(=O)N(Cc2ccccc2)c2ccccc23)cc1` (stereo unspecified), with 3.46%.
For `CCN(CC)C(=O)c1ccc2c(c1)N(Cc1ccc(C(F)(F)F)cc1)C(=O)c1ccccc1S2`, the inhibition was determined as 0.556%.
As for `CCC(=O)NCCc1nc2cc(NC(=O)c3cccc(Br)c3)ccc2n1C`, the inhibition is 13.4%.
Then `Cc1ccc(NC(=O)Nc2nnc(N3CCCC3)s2)cc1C`, with 22.5%; and `Cn1c(=O)c(C(=O)O)nn(-c2ccccc2)c1=O`, with 8.68%.
Then `COC(=O)c1ccc(C(=O)OC)c(NC(=O)CN(c2ccccc2)S(=O)(=O)N(C)C)c1`, with 2.99%.
Regarding `COc1cccc(CNC(=O)CSC2=Nc3ccccc3N=C(c3ccc(F)cc3)C2)c1`, the inhibition was 11.8%.
As to `CCOc1ccccc1CNC(=O)C1CCCN(c2nnc(C)c3c(C)n(-c4ccccc4)nc23)C1` (stereo unspecified), the inhibition was -12.7%.
To `Cc1c(C(=O)N2CCC(C)CC2)c(S(=O)(=O)N(Cc2ccccc2)C(C)(C)C)c(C)n1C` belongs 5.2%; to `CN1CCN(C(=O)C(=O)Nc2c3c(nn2-c2ccc(Cl)cc2)CSC3)CC1`, -1.75%; to `CCN(C(=O)c1ccc2c(c1)OCO2)C1CCS(=O)(=O)C1` (stereo unspecified), active: 38.5%.
To `N#C/C(=C\C=C\c1ccccc1)C(=O)NCc1ccco1` belongs active: 36.9%.
Regarding `COc1ccc(OC)c2sc(N3CCN(C(=O)c4ccco4)CC3)nc12`, the inhibition is -5.22%.
For `COc1ccc(/C=C/C(=O)c2ccc(C(=O)/C=C/c3ccc(OC)c(OC)c3)cc2)cc1OC`, the inhibition was active: 33.6%.
